Assay results taken from the supplement of paper PMC6135742.
Several values for one entry are separate records, joined by “and”; a condition that tells them apart may be missing. Identical values can stand only once. Counter-ions that a name gives are not always drawn. ± gives the standard deviation of the averaged measurements. The full ranking holds about 2,600 compounds; the median of “total cell number (DAPI+ nuclei) relative to DMSO vehicle control” is about -1.4, and the lowest 2% start at about -23. This is one part of the list.

system: jimpy (Plp1 jimpy) mouse iPSC-derived oligodendrocyte progenitor cells; assay: total cell number (DAPI+ nuclei) relative to DMSO vehicle control (SDs above negative control mean); higher = more surviving cells; settings: 10 µM; 3 days

Point of comparison: `O=C(Nc1ccccc1C(=O)NC1CCCCNC1=O)c1cc2ccccc2s1` (stereo not drawn), total cell number -0.315. Against it:
- Cc1cccc(C)c1NC(=O)C(C)N (stereo not drawn) [Tocainide hydrochloride] — lower, -0.826
- C=CCc1cccc(/C=N/NC(=O)CN2CCN(Cc3ccccc3)CC2)c1O — lower, -9.01 ± 1.4
- CC(C(=O)O)c1ccc2c(c1)[nH]c1ccc(Cl)cc12 (stereo not drawn) [Carprofen] — lower, -0.446
- O=C(Nc1cccc(C(F)(F)F)c1)Nc1cc(S(=O)(=O)NC2CC2)ccc1-c1ccsc1 — higher, 3.6
- O=C1c2c(O)cccc2C([C@@H]2O[C@H](CO)[C@@H](O)[C@H](O)[C@H]2O)c2cc(CO)cc(O)c21 (stereo partly drawn) [Aloin] — lower, -12.6
- Cc1cc(/C=C/C#N)cc(C)c1Nc1ccnc(Nc2ccc(C#N)cc2)n1 [Rilpivirine] — lower, -9.09
- C=C1C(=O)[C@]23[C@H](O)[C@H]1CC[C@H]2[C@@]12CO[C@]3(O)[C@@H](O)[C@@H]1C(C)(C)CC[C@@H]2O [Oridonin] — lower, -14.2
- Cc1c(N(C)C)c(=O)n(-c2ccccc2)n1C [Amidopyrine] — higher, 0.739
- CCCc1c(-c2ccc(O)cc2)nn(-c2ccc(O)cc2)c1-c1ccc(O)cc1 [1,3,5-tris(4-hydroxyphenyl)-4-propyl-1H-pyrazole] — higher, -0.0399
- CCOc1cc2ncc(C#N)c(Nc3ccc(F)c(Cl)c3)c2cc1NC(=O)/C=C/CN(C)C [Pelitinib (EKB-569)] — lower, -27.4
- COc1ccc(/C=C/C(=O)Nc2ccccc2C(=O)O)cc1OC [Tranilast] — within error, -0.221 ± 0.67
- CCN(CC)CCNC(=O)c1c(C)[nH]c(/C=C2\C(=O)Nc3ccc(F)cc32)c1C [Sunitinib Malate] — lower, -26.5
- CCN(CC)CCNC(=O)c1c(C)[nH]c(/C=C2\C(=O)Nc3ccc(F)cc32)c1C [Sunitinib malate] — lower, -11.2
- Oc1ccc(/C=C/c2cc(O)cc(O)c2)cc1 [Resveratrol] — lower, -2.54 ± 1
- CCN(CC)Cc1ccc(C(=O)N(CCc2ccccc2OC)[C@@H]2CCNC2)cc1 — lower, -5.47
- CCOC(=O)C1=C(COCCN)NC(C)=C(C(=O)OC)C1c1ccccc1Cl (stereo not drawn) [Amlodipine] — lower, -16.4
- CN1[C@@H]2CC[C@H]1C[C@@H](OC(=O)c1c[nH]c3ccccc13)C2 [Tropisetron] — higher, 0.67
- COc1ccccc1N1CCN(CCCCN2C(=O)c3ccccc3C2=O)CC1 [NAN-190 hydrobromide] — lower, -2.62
- Cc1cccc(C)c1OCC(C)N (stereo not drawn) [Mexiletene hydrochloride] — lower, -1.4
- Cc1cccc(C)c1OCC(C)N (stereo not drawn) [Mexiletine HCl] — lower, -2.12
- COc1ccccc1OCC(O)CO (stereo not drawn) [Guaifenesin] — higher, 0.348
- CC[C@]1(O)C[C@H]2CN(CCc3c([nH]c4ccccc34)[C@@](C(=O)OC)(c3cc4c(cc3OC)N(C=O)[C@H]3[C@@](O)(C(=O)OC)[C@H](OC(C)=O)[C@]5(CC)C=CCN6CC[C@]43[C@@H]65)C2)C1 [Vincristine sulfate] — lower, -1.63
- CC[C@]1(O)C[C@H]2CN(CCc3c([nH]c4ccccc34)[C@@](C(=O)OC)(c3cc4c(cc3OC)N(C=O)[C@H]3[C@@](O)(C(=O)OC)[C@H](OC(C)=O)[C@]5(CC)C=CCN6CC[C@]43[C@@H]65)C2)C1 [Vincristine] — lower, -3.41
- NC[C@@H]1O[C@H](O[C@H]2[C@@H](O)[C@H](O[C@@H]3[C@@H](O)[C@H](N)C[C@H](N)[C@H]3O[C@H]3O[C@H](CO)[C@@H](O)[C@H](O)[C@H]3N)O[C@@H]2CO)[C@H](N)[C@@H](O)[C@@H]1O [Paromomycin sulfate] — lower, -0.353
- Nc1nc(CC(=O)Nc2ccc(CCNC[C@H](O)c3ccccc3)cc2)cs1 [Mirabegron] — lower, -2.27
- CC(=O)[C@H]1CC[C@H]2[C@@H]3C=CC4=CC(=O)CC[C@@]4(C)[C@@H]3CC[C@]12C [Dydrogesterone] — lower, -2.82
- Cc1cc(=O)[nH]c(=S)[nH]1 [Methylthiouracil] — lower, -0.387
- CC(=O)c1ccc2c(c1)N(CCCN(C)C)c1ccccc1S2 [Acepromazine maleate] — lower, -4.57
- CN(C)CCOC(C)(c1ccccc1)c1ccccn1 (stereo not drawn) [Doxylamine Succinate] — higher, 0.0683
- CN(C)CCOC(C)(c1ccccc1)c1ccccn1 (stereo not drawn) [Doxylamine succinate] — lower, -0.967
- C=CCNC(N)=S [Allylthiourea] — higher, 6.27
- CNC(=O)c1cccc(-c2ccc3c(N4CCOC[C@@H]4C)nc(N4CCOC[C@@H]4C)nc3n2)c1 — lower, -8.56
- COc1cc2nccc(Oc3ccc(NC(=O)Nc4cc(C)on4)c(Cl)c3)c2cc1OC [Tivozanib (AV-951)] — lower, -23.5
- CC(C)(C#N)c1cc(Cn2cncn2)cc(C(C)(C)C#N)c1 [Anastrozole] — lower, -2.07
- C[C@@H](O)[C@H]1C(=O)N2C(C(=O)O)=C(S[C@@H]3CN[C@H](CNS(N)(=O)=O)C3)[C@H](C)[C@H]12 [Doripenem Hydrate] — lower, -2.66
- Nc1ccn([C@H]2CC[C@@H](CO)O2)c(=O)n1 [Zalcitabine] — higher, 0.741
- Nc1ccn([C@H]2CC[C@@H](CO)O2)c(=O)n1 [2',3'-dideoxycytidine] — lower, -1.23
- CCc1cc(Nc2nccc(-c3c(-c4ccc(OC)c(C(=O)Nc5c(F)cccc5F)c4)nc4ccccn34)n2)c(OC)cc1N1CCC(N2CCN(S(C)(=O)=O)CC2)CC1 — higher, 1.44
- CC(S)C(=O)NCC(=O)O (stereo not drawn) [Tiopronin] — lower, -2.65
- CN1CCN(CCCN2c3ccccc3Sc3ccc(C(F)(F)F)cc32)CC1 [Trifluoperazine dihydrochloride] — lower, -6.91
- CN1CCN(CCCN2c3ccccc3Sc3ccc(C(F)(F)F)cc32)CC1 [Trifluoperazine 2HCl] — lower, -12.1
- CNCc1ccc(-c2cc(-c3nc(-c4ccc(S(=O)(=O)C(C)C)cc4)cnc3N)on2)cc1 — lower, -14.8
- CNC[C@H](O)c1ccc(O)c(O)c1 [Epinephrine Bitartrate] — higher, 0.13
- CNC[C@H](O)c1ccc(O)c(O)c1 (racemic) [(±)-Epinephrine hydrochloride] — lower, -0.342
- CNC[C@H](O)c1ccc(O)c(O)c1 [(-)-Epinephrine bitartrate] — higher, 0.182
- CNC[C@H](O)c1ccc(O)c(O)c1 [Epinephrine HCl] — lower, -0.436
- O=C(NCc1ccccc1)c1csc(Nc2ccncn2)n1 [Thiazovivin] — lower, -5.19
- C=CC(=O)Nc1cc2c(Nc3ccc(F)c(Cl)c3)ncnc2cc1OCCCN1CCOCC1 [Canertinib (CI-1033)] — lower, -24.4
- OC(CNCC(O)C1CCc2cc(F)ccc2O1)C1CCc2cc(F)ccc2O1 (stereo not drawn) [Nebivolol] — lower, -6.15
- CC[C@H](C)[C@H](N)C1=N[C@H](C(=O)N[C@@H](CC(C)C)C(=O)N[C@H](CCC(=O)O)C(=O)N[C@H](C(=O)N[C@H]2CCCCNC(=O)[C@H](CC(N)=O)NC(=O)[C@@H](CC(=O)O)NC(=O)[C@H](Cc3cnc[nH]3)NC(=O)[C@@H](Cc3ccccc3)NC(=O)[C@H]([C@@H](C)CC)NC(=O)[C@@H](CCCN)NC2=O)[C@@H](C)CC)CS1 [Bacitracin] — higher, 1.03
- O=C(CCc1ccc(O)cc1)c1c(O)cc(O)cc1O [Phloretin] — within error, -0.713 ± 0.4
- CCCCCCCCCCCCCCCC(=O)OC(CC(=O)O)C[N+](C)(C)C (racemic) [Palmitoyl-DL-Carnitine chloride] — lower, -0.836
- O=C(O)c1cc(/N=N/c2ccc(O)c(C(=O)O)c2)ccc1O [Olsalazine Sodium] — lower, -1.09
- COc1ccc2c(c1OC)C(=O)O[C@@H]2[C@H]1c2c(cc3c(c2OC)OCO3)CCN1C [Noscapine hydrchloride] — lower, -1.14
- O=C(Nc1ccccc1-c1cn2c(CN3CCNCC3)csc2n1)c1cnc2ccccc2n1 — lower, -27.8
- CNC(=O)c1cc(Oc2ccc(NC(=O)Nc3ccc(Cl)c(C(F)(F)F)c3)c(F)c2)ccn1 [Regorafenib (BAY 73-4506)] — higher, 0.684
- CC(C)C[C@H](NC(=O)[C@H](O)[C@H](N)Cc1ccccc1)C(=O)O [Epibestatin hydrochloride] — lower, -2.38
- CN(C)CC(=O)Nc1ccc2[nH]c(=O)c3ccccc3c2c1 — lower, -5.5
- CC(C)C[C@H](NC(=O)[C@@H](NC(=O)c1cccc(-c2ccccc2)n1)[C@@H](C)O)B(O)O — lower, -22.6
- CNC(=O)c1cc(Oc2ccc(NC(=O)Nc3cc(C(C)(C)C)nn3-c3ccc4ncccc4c3)c(F)c2)ccn1 [DCC-2036 (Rebastinib)] — lower, -10.3
- OC[C@H]1O[C@H](O[C@]2(CCl)O[C@H](CCl)[C@@H](O)[C@@H]2O)[C@H](O)[C@@H](O)[C@H]1Cl [Sucralose] — lower, -0.382
- Cc1nc(C#Cc2cccnc2)cs1 [MTEP hydrochloride] — lower, -2.19
- O=C(O)c1cc(=O)cc(C(=O)O)[nH]1 [Chelidamic acid] — lower, -1.06
- Nc1nc2ccc(OC(F)(F)F)cc2s1 [Riluzole] — lower, -2.38 ± 0.18
- CN1CCC(=C2c3ccccc3CCc3cccnc32)CC1 [Azatadine dimaleate] — lower, -1.63
- COc1ccc2c(c1)c(CC(=O)O)c(C)n2C(=O)c1ccc(Cl)cc1 [Indomethacin] — lower, -0.514 ± 0.14
- C(=C\c1ccccc1)/CN1CCN(C(c2ccccc2)c2ccccc2)CC1 [Cinnarizine] — lower, -2.96
- C[C@@H]1CCO[C@H]2Cn3cc(C(=O)NCc4ccc(F)cc4F)c(=O)c(O)c3C(=O)N12 — lower, -1.73
- O=C(C1CCCCC1)N1CC(=O)N2CCc3ccccc3C2C1 (stereo not drawn) [Praziquantel] — within error, 3.35 ± 6.5
- C[C@]1(O)C[C@@H](c2nc(-c3ccc4ccc(-c5ccccc5)nc4c3)c3c(N)nccn32)C1 [OSI-906 (Linsitinib)] — lower, -22.4
- O=C(Oc1cc(S(=O)(=O)c2ccccc2)ccc1[N+](=O)[O-])c1ccc(Cl)cc1 — higher, 0.667

For `COc1cccc(-c2cc(=O)c3ccccc3o2)c1N`, the total cell number was -3.56 and -6.76.
